PMC6919601, “Identification of Plasmodium dipeptidyl aminopeptidase allosteric inhibitors by high throughput screening” (PLoS ONE, 2019)
Screen size: about 110,000 compounds; about 230 (0.21%) showed an effect of 50% or more. The list shows a part of the results.

Target: DPAP1 (Plasmodium falciparum, UniProt Q8IIJ9)
Assay: primary screen, percent inhibition; read by cleavage of a fluorogenic dipeptide substrate; higher = more effect of the substance
Design: species or system P. falciparum D10 trophozoite lysates; single well
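Note: 30 min substrate incubation versus DMSO and 10 µM JCP410 controls.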

Sequence of DPAP1 (Q8IIJ9 whole entry, looked up): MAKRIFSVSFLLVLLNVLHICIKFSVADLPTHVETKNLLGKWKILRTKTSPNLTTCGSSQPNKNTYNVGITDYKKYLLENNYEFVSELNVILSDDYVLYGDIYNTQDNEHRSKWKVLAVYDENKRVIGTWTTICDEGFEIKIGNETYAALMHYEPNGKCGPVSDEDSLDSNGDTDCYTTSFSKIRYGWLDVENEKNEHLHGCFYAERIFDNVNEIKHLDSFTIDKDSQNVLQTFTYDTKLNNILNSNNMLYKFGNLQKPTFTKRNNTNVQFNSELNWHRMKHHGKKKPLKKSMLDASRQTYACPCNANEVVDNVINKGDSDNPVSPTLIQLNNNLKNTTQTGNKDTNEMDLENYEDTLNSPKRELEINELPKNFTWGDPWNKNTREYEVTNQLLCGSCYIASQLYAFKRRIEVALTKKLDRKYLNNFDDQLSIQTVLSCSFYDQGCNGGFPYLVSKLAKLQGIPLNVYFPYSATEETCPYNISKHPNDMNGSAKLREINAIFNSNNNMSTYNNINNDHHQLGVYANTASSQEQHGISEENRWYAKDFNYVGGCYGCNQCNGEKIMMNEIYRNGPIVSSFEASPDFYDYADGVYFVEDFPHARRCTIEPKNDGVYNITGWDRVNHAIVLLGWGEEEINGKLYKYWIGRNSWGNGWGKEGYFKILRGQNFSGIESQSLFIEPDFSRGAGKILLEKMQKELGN

Row | SMILES | % Inhibition @ 10 uM
1 | O=c1[nH]n(-c2ccc([N+](=O)[O-])cc2)c(=O)c2ccccc12 | 1.7%
2 | COCCCNC(=O)Cn1cnc2sc(C)c(S(=O)(=O)N3CC(C)CC(C)C3)c2c1=O (stereo not shown) | -5%
3 | Cc1cc2c(n1-c1ccc(C(=O)NC(C)C)cc1)CCCC2 | -3.53%
4 | COc1ccc(-c2nn(C)c3sc(C(=O)N4CCOCC4)cc23)cc1OC | 2.9%
5 | COC(=O)c1ccc(C(=O)N(CCN(C)C)c2nc3ccc(F)cc3s2)cc1 | 1.71%
6 | Cc1cc(OCC(=O)Nc2ccc(S(=O)(=O)N3CCCCC3)cc2)ccc1Br | -3.43%
7 | Cc1[nH]nc2c1C(c1ccc(OCc3ccccc3)cc1)C(C#N)=C(N)O2 (stereo not shown) | -0.759%
8 | CC(C)(C)OC(=O)N1CC(=O)C(NC(=O)C(CC(=O)N2CCOCC2)CS(=O)(=O)Cc2ccccc2)C1 (stereo not shown) | 4.33%
9 | COc1ccc(OCC(=O)N2CCc3ccccc32)cc1 | 0.59%
10 | CC(C)c1ccc(/C=C2\C(=O)NC(=S)N(c3cccc(Cl)c3)C2=O)cc1 | 4.52%
11 | Cc1ccc(Cn2c3ccccc3c3cnn(CC(=O)N4CCCC4)c(=O)c32)cc1 | 3.3%
12 | COC(=O)C(O)(c1ccc(N(C)C)cc1)C(F)(F)F (stereo not shown) | -2.44%
13 | Fc1ccccc1OCCCCCCN1CCCCC1 | -3.94%
14 | CCCCOc1ccc(S(=O)(=O)NCc2cn3ccsc3n2)cc1 | -0.72%
15 | O=C(O)CCCNC(=O)c1ccc2c(c1)OCCO2 | 2.33%
16 | COc1ccc(OCC(=O)NC2CC(C)(C)NC(C)(C)C2)cc1 | 2.03%
17 | Cc1cc(OCC(=O)Nc2ccc(S(=O)(=O)N3CCCC3)cc2)c(C(C)C)cc1Br | -4.86%
18 | COc1ccc(/C=C2N=C(/C=C/c3ccccc3)OC/2=O)c(OC)c1 | -3.83%
19 | COc1ccc(C(=N)NOC(=O)COc2ccc(Br)c(C)c2)cc1 | -3.21%
20 | Cc1[nH]c2ccccc2c1/C=C(/C#N)C(=O)NCc1ccccc1 | 0.392%
21 | CCc1cccc(C)c1NC(=O)C1CC(=O)N(c2ccc(C)c(C)c2)C1 (stereo not shown) | -5.3%
22 | CSc1ccccc1NC(=O)C(C)NS(=O)(=O)c1ccc(C)cc1 (stereo not shown) | 3.42%
23 | CCOc1ccc(NC(=O)C2C3C=CC(C3)C2C(=O)Nc2ccc(OCC)cc2)cc1 (stereo not shown) | -1.28%
24 | Cc1ccc(C(=O)NCc2nnc(SCC(=O)Nc3nccs3)n2-c2ccccc2)cc1C | -4.97%
25 | Cc1cn(C(c2ccccc2)c2ccccc2)c(=O)[nH]c1=O | -0.834%

Row | SMILES | % Inhibition @ 10 uM
26 | CC1CCc2c(sc3nnn(CCCCOc4ccccc4)c(=O)c23)C1 (stereo not shown) | -0.946%
27 | Cc1ccc2nc(-c3ccc(N4C(=O)CC(N5CCN(CCO)CC5)C4=O)cc3)sc2c1 (stereo not shown) | 2.79%
28 | Cc1cc2c(c(=O)o1)C(c1cccnc1)C(C#N)=C(N)O2 (stereo not shown) | 4.73%
29 | CCOc1ccc(-n2c(C)cc(/C=C3/C(=N)N4C=C(C)SC4=NC3=O)c2C)cc1 | -1.4%
30 | CC1(C)CC2CC(C)(CN2C2CCN(CCc3ccccc3)CC2)C1 (stereo not shown) | 1.08%
31 | COCCCNC(=O)/C(C#N)=C/c1c(Oc2ccc(Cl)cc2)nc2ccccn2c1=O | -9.75%
32 | Cc1c(CNc2ccc(F)c(F)c2)c(=O)n(-c2ccccc2)n1C | -3.27%
33 | O=C(CCc1nc2cccnc2n1-c1ccccc1)N1CCC(Cc2ccccc2)CC1 | -3.45%
34 | CCC(=O)N1N=C2CC(C)(C)OCC2C1c1ccccc1 (stereo not shown) | -0.0938%
35 | O=C(O)c1nn2c(C(F)(F)F)cc(-c3ccc(Br)cc3)nc2c1Br | 2.81%
36 | Cc1nc2sccn2c(=O)c1S(=O)(=O)NCCc1ccc(Cl)cc1 | 1.68%
37 | Cc1ccc(NC(=O)C2CCCCC2C(=O)O)nc1 (stereo not shown) | -1.88%
38 | Oc1ccc(O)c(C2CC3CCC2C3)c1 (stereo not shown) | -1.99%
39 | CC(=O)c1cccc(NC(=O)c2cnn(-c3ccccc3)c2C)c1 | 2.64%
40 | CCCCC(=O)N1CCN(c2nc(Cc3ccccc3)c3c(c2C#N)CC(C)(C)OC3)CC1 | -2.78%
41 | Cc1ccccc1Cn1c(-c2cncs2)nc2ccccc21 | -0.169%
42 | COc1ccc(OCCCC(=O)Nc2ccc(Br)cc2)cc1 | 4.76%
43 | CCc1nnc(NC(=O)CSc2ccc3nnc(-c4cccs4)n3n2)s1 | 1.13%
44 | OCC1CCCCN1C/C=C/c1ccccc1 (stereo not shown) | -4.75%
45 | c1ccc(CSc2nccn2Cc2ccccc2)cc1 | -1.97%
46 | CCCCOC(=O)C1=C(C)NC(=O)NC1c1ccc(O)cc1 (stereo not shown) | -7.18%
47 | CC(C)OC(=O)c1ccc2[nH]c3c(c2c1)CCCC3 | -6.55%
48 | CCNc1ncnc2c1cnn2-c1ccc(C)c(C)c1 | -1.79%
49 | O=C(CN1C(=O)c2cccc3cccc(c23)C1=O)N1CCN(c2ccccc2)CC1 | -5.06%
50 | O=C(c1cc2c(Cl)nc3ccccc3c2s1)N1CCN(Cc2ccc3c(c2)OCO3)CC1 | -1.54%

Row | SMILES | % Inhibition @ 10 uM
51 | CCCCOc1ccc(CN2CCN(CCOCCO)CC2)cc1 | -4.04%
52 | Cc1cc(C)c(-n2nnnc2SCc2nc(N)nc(N3CCOCC3)n2)c(C)c1 | -1.24%
53 | COc1ccc(OCC(=O)N2N=C(C(F)F)CC2(O)C(F)F)cc1 (stereo not shown) | 0.709%
54 | O=C(NCCc1cccs1)C1CCCN(S(=O)(=O)N2CCOCC2)C1 (stereo not shown) | -4.68%
55 | O=C(O)c1ccc(CN2CCN(Cc3ccccc3)CC2)cc1 | 5.42%
56 | CN1CCCN(C/C=C/c2ccc(N(C)C)cc2)CC1 | -1.5%
57 | O=C(NCc1ccccc1)C1CC(=O)N(c2ccc(OCC(=O)N3CCCC3)cc2)C1 (stereo not shown) | 4.05%
58 | OCC(O)C1OC(Nc2ccc(Br)cc2)C(O)C1O (stereo not shown) | -1.74%
59 | Cn1cc(CNC(=O)C23CC4CC(CC(C4)C2)C3)cn1 | 1.61%
60 | N#CC1=C(N)Oc2[nH]nc(-c3ccc(F)cc3)c2C1c1cccc(F)c1 (stereo not shown) | -1.84%
61 | CC1CCCCN1CCNC(=O)Cn1c(=O)c2cccn2c2cccnc21 (stereo not shown) | -0.959%
62 | COc1ccccc1CNC(=O)C1CCCN(c2nc3ccsc3c(=O)s2)C1 (stereo not shown) | 6.03%
63 | Cc1cc(C)c(C)c(S(=O)(=O)NCc2ccc(C(=O)Nc3ccncc3)cc2)c1C | -1.84%
64 | CSc1ccc(-c2nc(O)c3c(n2)Oc2ccccc2C3)cc1 | 3.61%
65 | CCOC(=O)N1CCN(c2c(NCCCOC)c(=O)c2=O)CC1 | 1.93%
66 | CC(=O)Nc1ccc(S(=O)(=O)Nc2ccc(C)cc2C)cc1 | 3.35%
67 | c1ccc2c(NCC3CCCO3)nc(N3CCCCC3)nc2c1 (stereo not shown) | 2.84%
68 | CC(=O)Nc1ccc(NC(=O)CN(c2ccccc2C)S(C)(=O)=O)cc1 | -15.1%
69 | Cc1ccc(-c2cc(C(F)(F)F)n3ncc(C(=O)NCc4cnn(C)c4C)c3n2)cc1 | 1.79%
70 | O=C(CN1C(=O)c2ccccc2C1=O)Nc1cccc(C(F)(F)F)c1 | -6.68%
71 | Cc1cccc(C(=O)Nc2scc(-c3ccccc3)c2C(=O)O)c1 | -2.03%
72 | O=C(Nc1ccc(OCc2ccccc2)cc1)C1CCN(S(=O)(=O)c2ccc(F)cc2)CC1 | -2.98%
73 | O=C1Nc2ccccc2C(O)(C(=O)O)N1c1ccccc1 (stereo not shown) | 0.774%
74 | Clc1ccc(-c2nnc(-c3ccccc3Cl)o2)cc1 | 0.815%
75 | O=C(OCc1cccc(COC(=O)c2ccc([N+](=O)[O-])cc2)n1)c1ccc([N+](=O)[O-])cc1 | 0.00178%

Row | SMILES | % Inhibition @ 10 uM
76 | COc1ccc(N2CCN(Cc3cc(C)c(OC)cc3C)CC2)cc1 | -2.81%
77 | CCc1ccc(OCC(=O)NC2C3CC4CC(C3)CC2C4)cc1 (stereo not shown) | -4.43%
78 | O=C(O)c1ccc(NCc2c(Cl)cccc2Cl)cc1 | 3.37%
79 | Cc1cc(C)c2nc(N3CCC(C(=O)NCc4ccccn4)CC3)sc2c1 | 4.95%
80 | Cc1ccc(-n2cc(-c3ccccc3)c3c(NCCOCCO)ncnc32)cc1Cl | 3.36%
81 | Cc1oc(-c2ccc(C(=O)NCc3ccc4c(c3)OCO4)cc2)nc1CS(=O)c1ccccc1 (stereo not shown) | -0.767%
82 | CCS(=O)(=O)c1cc([N+](=O)[O-])c(Nc2ccc3ccccc3c2)s1 | -0.128%
83 | Cc1sc2ncn(CC(=O)NCCCC(=O)N3CCN(Cc4ccccc4)CC3)c(=O)c2c1C | -0.74%
84 | COc1ccc(C(=O)Nc2nnc(C(F)(F)F)s2)cc1 | -5.96%
85 | COc1ccccc1N1CCN(C(=O)C2C3C=CC(C3)C2C(=O)O)CC1 (stereo not shown) | -3.92%
86 | Cn1c(Oc2cccc(Cl)c2)nc2c1c(=O)n(Cc1ccc(F)cc1)c(=O)n2C | 4.93%
87 | CCC1CCCCN1C(=S)NC(=O)c1ccccc1 (stereo not shown) | 2.44%
88 | Cc1cc(C)n2nc(CNC(=O)c3ccc(Br)o3)nc2n1 | 2.84%
89 | Cc1cc(C)cc(NC(=O)c2ccc(Cl)c([N+](=O)[O-])c2)c1 | 0.135%
90 | O=C1/C(=C/c2cccc(O)c2)N2CCC1CC2 | 0.317%
91 | COc1ccc(NC(=O)CN2C(=O)S/C(=C/c3cc(C)n(-c4ccc(O)cc4)c3C)C2=O)cc1 | -3.69%
92 | CCCCN(CCNC(=O)Cn1nc(Cc2cccnc2)c2ccccc2c1=O)Cc1ccco1 | 1.24%
93 | CCOC(=O)c1sc(NC(=O)COc2ccccc2C(C)C)c(C(=O)OCC)c1C | 5.94%
94 | Cc1ccc(S(=O)(=O)Nc2ccc(S(=O)(=O)Nc3cc(C)nc(C)n3)cc2)cc1 | -1.42%
95 | COc1cccc(-c2nc3cc(NC(=O)c4cncc(Br)c4)ccc3o2)c1 | -1.41%
96 | CN(C)C1(c2nnnn2C(/C=C\c2ccc(Cl)cc2Cl)C(C)(C)C)CCCC1 (stereo not shown) | 11.6%
97 | Cc1cc(C(=O)Nc2c(C)nn(Cc3ccc(Cl)c(Cl)c3)c2C)no1 | -0.591%
